Over roughly 4,100 sequences, “relative CpG methylation activity (normalised to average over all NNNCGNNN flanks)” has its median near 0.87; the highest 2% begin near 2.4. Some of the results follow.
molecular target: DNMT3A catalytic domain (mouse) (UniProt O88508); test: relative CpG methylation activity (normalised to average over all NNNCGNNN flanks) (relative (1 = mean)); higher = more methylation of the central CpG; settings: system: in vitro, murine catalytic domain; CpG state: hemimethylated substrate pool; residues: 608-908
Outline: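 Pooled dsDNA substrates with a central CpG inside 10 random flanking nucleotides were methylated by murine DNMT3A or DNMT3B catalytic domain with 0.8 mM S-adenosyl-L-methionine in HEPES pH 7.5 buffer for 60 min at 37 °C. The DNA then went through proteinase K, BsaI-HFv2 digestion, hairpin ligation, bisulfite conversion and two-step PCR before Illumina sequencing. Relative methylation activity is the average methylation of each context with three flanking bases per side, divided by the mean over all contexts. Each experiment had two independent repeats.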

| Sequence | relative CpG methylation activity |
| --- | --- |
| TACCGCCT | 1.77 |
| TCACGGGT | 0.882 |
| TACCGAGG | 0.287 |
| TGCCGCTA | 0.809 |
| AACCGCCC | 1.78 |
| GACCGTTG | 0.488 |
| ACCCGCCG | 1.76 |
| GTCCGGTG | 1.27 |
| CCGCGTAC | 0.881 |
| AATCGAGC | 0.655 |
| TAGCGCTA | 0.387 |
| AAGCGGCT | 0.462 |
| CTACGCGT | 1.87 |
| GGACGAAT | 0.517 |
| TGGCGGAT | 0.224 |
| CGTCGACC | 0.798 |
| CACCGCAG | 0.481 |
| GAGCGCCA | 0.912 |
| GCTCGGAC | 1.46 |
| CCTCGCGT | 1.36 |
| ATGCGTTT | 1.19 |
| ATTCGATA | 0.925 |
| TCGCGTGC | 0.297 |
| CAGCGGGA | 0.539 |
| ATACGGAC | 1.87 |

| Sequence | relative CpG methylation activity |
| --- | --- |
| AGGCGGAT | 0.435 |
| GCCCGAGG | 0.787 |
| ATTCGCTT | 1.77 |
| AATCGGAG | 0.0338 |
| CCACGCCA | 1.91 |
| ACGCGGAC | 1.08 |
| ACCCGATA | 1.07 |
| CGGCGCGA | 0.179 |
| CGACGCGA | 0.524 |
| CATCGTGT | 0.357 |
| AGCCGTCC | 1.53 |
| TCTCGCAA | 1.4 |
| TGCCGAGT | 0.638 |
| TAACGCTG | 0.798 |
| CAACGAAT | 0.648 |
| CTGCGGAG | 0.872 |
| GCGCGGAA | 0.56 |
| TACCGAAG | 0.425 |
| TTGCGCTC | 2.26 |
| AGGCGGGA | 0.347 |
| ATGCGGCT | 1.27 |
| AAGCGATT | 0.592 |
| TACCGCGC | 0.548 |
| CTTCGGGA | 0.733 |
| CCGCGTGA | 0.541 |

| Sequence | relative CpG methylation activity |
| --- | --- |
| AGCCGACG | 0.811 |
| GTCCGATT | 1.67 |
| ACGCGGCT | 0.894 |
| TATCGTCA | 1.29 |
| TTGCGCGT | 1.26 |
| GCTCGGTT | 0.942 |
| TGCCGTCT | 1.28 |
| ACCCGACA | 1.55 |
| ATACGGGA | 1.52 |
| AGACGATG | 0.457 |
| ATCCGACA | 1.72 |
| AACCGTCC | 1.68 |
| TAGCGCAA | 0.378 |
| GTGCGCTC | 2.03 |
| CGCCGCGG | 0.187 |
| CCTCGGGG | 0.25 |
| CTACGGAT | 1.52 |
| AATCGAAT | 0.174 |
| TGGCGGTG | 0.106 |
| TTTCGTAA | 1.87 |
| TGACGCAC | 0.88 |
| GCTCGATG | 0.561 |
| ACGCGGTC | 0.775 |
| GCGCGGTG | 0.634 |
| CGCCGTTT | 0.424 |

| Sequence | relative CpG methylation activity |
| --- | --- |
| CAGCGTGC | 0.327 |
| CTTCGGTT | 0.352 |
| ATCCGTTC | 1.56 |
| GCACGCTT | 2.12 |
| TGCCGCGC | 0.766 |
| AATCGATA | 0.42 |
| GCGCGTAT | 0.508 |
| AGACGCCC | 1.43 |
| TAACGTGA | 0.233 |
| AACCGTAG | 0.515 |
| TCGCGACG | 0.6 |
| GACCGCAT | 0.94 |
| GTCCGGCG | 1.49 |
| AAACGTGT | 0.156 |
| ATTCGAGT | 0.6 |
| CTGCGATA | 1.15 |
| TCCCGAGT | 0.977 |
| CCGCGCTT | 1.93 |
| GTTCGCTT | 1.58 |
| CCTCGACT | 0.872 |
| CTCCGAAC | 2.33 |
| CGTCGACA | 0.422 |
| CCCCGTTG | 0.874 |
| GAGCGAGC | 1.32 |
| ATACGATG | 1.3 |

| Sequence | relative CpG methylation activity |
| --- | --- |
| TGCCGGCG | 0.402 |
| GATCGCTG | 0.672 |
| GACCGCCG | 1.18 |
| CGGCGGTT | 0.238 |
| TACCGAGC | 1.23 |
| CAACGTTC | 0.87 |
| GTGCGCGC | 1.74 |
| TGGCGGTA | 0.312 |
| TCCCGAAC | 1.53 |
| TAGCGAAC | 0.705 |
| ATCCGGTT | 1.34 |
| TGGCGTGG | 0.185 |
| CGCCGCAT | 0.658 |
| TTCCGCAG | 0.954 |
| AGGCGACG | 0.412 |
| TGACGGTT | 0.398 |
| GTGCGCTT | 2.47 |
| TTGCGACG | 1.23 |
| GTGCGGAG | 0.7 |
| GATCGTGG | 0.0746 |
| CACCGGAA | 0.755 |
| CACCGATG | 0.558 |
| CTTCGGGC | 1.16 |
| TGGCGCTG | 0.656 |
| AATCGCCG | 0.966 |

| Sequence | relative CpG methylation activity |
| --- | --- |
| CACCGTCC | 1.64 |
| GACCGGTG | 0.677 |
| AAGCGACA | 0.602 |
| TTACGAAT | 1.54 |
| GCACGATA | 1.23 |
| TGTCGAGT | 0.575 |
| TGGCGGAG | 0.208 |
| CATCGGAC | 0.718 |
| CGTCGCCG | 1.14 |
| CCGCGCGT | 0.827 |
| AACCGCTG | 1.01 |
| CTACGAAT | 1.41 |
| TAGCGGGT | 0.231 |
| GCGCGATG | 0.728 |
| GTCCGATG | 1.11 |
| CTACGTTT | 1.6 |
| TTCCGGGA | 1.43 |
| ATTCGGCC | 1.19 |
| TGCCGGAT | 0.476 |
| CGCCGCGT | 0.547 |
| GGTCGACA | 0.357 |
| CCACGCTT | 2.06 |
| GTACGCTG | 1.88 |
| ACGCGAGT | 0.94 |
| AGGCGTGT | 0.119 |

| Sequence | relative CpG methylation activity |
| --- | --- |
| ACTCGTCT | 1.48 |
| TGACGATC | 0.957 |
| TACCGCCC | 1.65 |
| GCCCGCGG | 0.291 |
| TGACGGAG | 0.197 |
| TTACGAGC | 2.12 |
| CGGCGGAT | 0.495 |
| GACCGCTC | 1.78 |
| TACCGTAT | 0.614 |
| GTTCGGAC | 1.19 |
| TTCCGTAA | 1.96 |
| GCGCGATA | 0.71 |
| TACCGGTC | 0.846 |
| AGACGTTA | 0.635 |
| CGCCGCTC | 1.64 |
| CGACGTGG | 0.204 |
| ACCCGCAC | 1.35 |
| TTTCGCCG | 1.83 |
| GCCCGATA | 1.08 |
| CGCCGCCC | 1.77 |
| ACGCGCTA | 1.54 |
| TCGCGGGT | 0.714 |
| GGACGCCC | 1.88 |
| CCACGGCG | 1.2 |
| GCTCGTTT | 0.464 |

| Sequence | relative CpG methylation activity |
| --- | --- |
| TACCGACA | 1.09 |
| TTACGCTT | 2.62 |
| TACCGCGA | 0.569 |
| AGGCGTTG | 0.253 |
| GTACGAGC | 2.12 |
| CGTCGACG | 0.437 |
| TATCGCTT | 1.94 |
| TTGCGGAG | 0.673 |
| GAGCGCTG | 0.969 |
| TTGCGCCT | 2.1 |
| TACCGCTA | 1.14 |
| GACCGGCG | 0.818 |
| CCTCGGCC | 1.29 |
| TTCCGACC | 1.93 |
| TTGCGAGA | 1.5 |
| ATGCGGAT | 1.38 |
| ATACGTCC | 2.56 |
| TAGCGGTT | 0.141 |
| TGGCGGGC | 0.283 |
| GCCCGCAG | 0.699 |
| GTGCGATC | 2.28 |
| GGCCGGAT | 0.229 |
| ATGCGTCG | 1.68 |
| TGTCGAAT | 0.469 |
| GGTCGACC | 0.281 |

| Sequence | relative CpG methylation activity |
| --- | --- |
| TGCCGCGA | 0.629 |
| TAGCGGTG | 0.125 |
| TGGCGGGG | 0.455 |
| GCTCGATC | 1.32 |
| GTTCGGCC | 1.04 |
| TAGCGTGA | 0.153 |
| GACCGCCT | 1.65 |
| GTCCGCGG | 0.584 |
| ACGCGGGA | 0.593 |
| GATCGTTG | 0.265 |
| GTTCGGTA | 0.562 |
| AGTCGCTC | 1.4 |
| AAGCGTCG | 0.966 |
| GACCGAGA | 0.799 |
| TCGCGCAC | 1.29 |
| CCCCGTGG | 0.357 |
| CGACGCCG | 1.12 |
| TCACGGGC | 1.6 |
| CTACGGGC | 1.67 |

From the supplement of paper PMC7335073
